Test results from the antibiotic and cytotoxicity screens of Wong et al. (2023).
Some of the results follow.

tested on: HepG2; assay: cytotoxicity call (relative viability < 0.9); conditions: 10 µM

| Structure (SMILES) | cytotoxicity call |
| --- | --- |
| COc1ccc(NC(=O)Nc2ccc3c(c2)C(=O)N([C@@H](C)CO)C[C@H](C)[C@H](CN(C)S(=O)(=O)c2ccccc2)OCCCC[C@@H](C)O3)cc1 | inactive |
| C[C@H](CO)N1C[C@H](C)[C@@H](CN(C)C(=O)Nc2ccc(C(F)(F)F)cc2)OCCCC[C@H](C)Oc2ccc(NS(=O)(=O)c3cn(C)cn3)cc2C1=O | inactive |
| Cc1noc(C)c1NC(=O)Nc1ccc2c(c1)C(=O)N([C@H](C)CO)C[C@H](C)[C@@H](CN(C)C(=O)Nc1ccc(F)cc1)OCCCC[C@H](C)O2 | inactive |
| C[C@@H]1CCCCO[C@@H](CN(C)C(=O)Cc2ccccc2)[C@@H](C)CN([C@H](C)CO)C(=O)c2cc(NC(=O)CCC(F)(F)F)ccc2O1 | inactive |
| COc1ccc(CN(C)C[C@@H]2OCCCC[C@H](C)Oc3ccc(NC(=O)Nc4ccccc4)cc3C(=O)N([C@@H](C)CO)C[C@@H]2C)cc1 | inactive |
| O=C1C=CC(O)(CC(=O)OC[C@H]2O[C@@H](OC(=O)CC3(O)C=CC(=O)C=C3)[C@H](O)[C@@H](O)[C@H]2O)C=C1 | inactive |
| C[C@H](CO)N1C[C@H](C)[C@@H](CN(C)C(=O)Nc2ccccc2)OCCCC[C@H](C)Oc2ccc(NS(=O)(=O)c3ccccc3)cc2C1=O | inactive |
| C[C@H](CO)N1C[C@H](C)[C@H](CN(C)C(=O)c2ccccc2)OCCCC[C@H](C)Oc2ccc(NC(=O)Nc3cccc4ccccc34)cc2C1=O | inactive |

tested on: S. aureus RN4220; assay: growth inhibition call (relative growth <= 0.2); conditions: 50 µM

| Structure (SMILES) | growth inhibition call |
| --- | --- |
| C=C1CC23CC1(O)CCC2C12C=CC(O)C(C)(C(=O)O1)C2C3C(=O)O (centres undefined) | inactive |
| Cc1noc(C)c1NC(=O)N(C)C[C@H]1OCCCC[C@@H](C)Oc2ccc(NS(=O)(=O)c3cccs3)cc2C(=O)N([C@H](C)CO)C[C@@H]1C | inactive |
| C[C@@H]1CN([C@H](C)CO)C(=O)Cc2cc(NS(=O)(=O)c3cn(C)cn3)ccc2O[C@@H]1CN(C)S(=O)(=O)c1ccc(Cl)cc1 | inactive |
| Cn1cnc(CCNC(=O)C[C@H]2CC[C@H]3[C@@H](COC[C@@H](O)CN3C(=O)C3CC3)O2)c1 | inactive |
| C[C@H](CO)N1C[C@H](C)[C@H](CN(C)S(=O)(=O)c2ccc(C#N)cc2)Oc2ncc(Br)cc2C1=O | inactive |
| C[C@@H]1CN([C@@H](C)CO)C(=O)Cc2cc(NC(=O)Nc3ccc(C(F)(F)F)cc3)ccc2O[C@@H]1CN(C)C(=O)NC1CCCCC1 | inactive |
| Nc1nc(=O)[nH]cc1F | inactive |
| C[C@H](CO)N1C[C@H](C)[C@H](CN(C)Cc2ccc(-c3ccccc3)cc2)Oc2ccc(NC(=O)Cc3cn(C)c4ccccc34)cc2C1=O | inactive |
| C[C@H]1CN([C@@H](C)CO)C(=O)c2cccc(NS(=O)(=O)c3ccc(Cl)cc3)c2O[C@@H]1CN(C)Cc1ccc(Cl)c(Cl)c1 | inactive |
| C[C@H](CO)N1C[C@H](C)[C@@H](CN(C)C(=O)Nc2ccc3c(c2)OCO3)Oc2c(NS(=O)(=O)c3cn(C)cn3)cccc2C1=O | inactive |
| CCS(=O)(=O)Nc1ccc2c(c1)C(=O)N(C)[C@H]1CC[C@@H](CC(=O)N[C@H]3CCN(Cc4ccccc4)C3)O[C@@H]1CO2 | inactive |
| CC(=O)OCN1CCN(COC(C)=O)C1=O | inactive |
| COc1ccc(CN(C)C[C@@H]2Oc3c(NS(C)(=O)=O)cccc3C(=O)N([C@H](C)CO)C[C@H]2C)cc1 | inactive |
| C[C@H]1CN([C@@H](C)CO)C(=O)c2cccc(NC(=O)Nc3ccc(F)cc3)c2O[C@H]1CN(C)S(=O)(=O)c1cn(C)cn1 | inactive |
| CN(Cc1cnc2nc(N)nc(N)c2n1)c1ccc(C(=O)NC(CCC(=O)O)C(=O)O)cc1.O (centres undefined) | inactive |
| O=C(NS(=O)(=O)c1ccccc1)C1CC1 | inactive |
| C[C@H]1CN([C@@H](C)CO)C(=O)c2cc(NC(=O)Nc3ccc(F)cc3)ccc2O[C@H]1CN(C)Cc1ccc(Oc2ccccc2)cc1 | inactive |
| C[C@H](CO)N1C[C@H](C)[C@@H](CN(C)Cc2ccc(C(=O)Nc3ccccc3N)cc2)Oc2c(NC(=O)Nc3ccc4c(c3)OCO4)cccc2C1=O | inactive |
| NC[C@H]1CCS(=O)(=O)C1 | inactive |
| C[C@H](CO)N1C[C@H](C)[C@H](CN(C)C(=O)Nc2ccc(C(F)(F)F)cc2)Oc2c(NC(=O)NC3CCCCC3)cccc2C1=O | active |
| C[C@@H]1CN([C@H](C)CO)C(=O)c2cccc(NC(=O)Nc3ccc(C(F)(F)F)cc3)c2O[C@@H]1CN(C)Cc1ccccc1 | inactive |
